Results as given in publication PMC4336329 (PLoS ONE, 2015).
The whole screen tested about 310,000 compounds, of which about 2,200 (0.71%) showed an effect of 50% or more. Effects have a minus sign here. Some of the results follow.

biological target: human ether-à-go-go-related gene (hERG) potassium channel (human, UniProt Q12809); experiment: primary screen, population patch clamp on CHO cells stably expressing hERG
Sequence (Q12809 whole entry, looked up): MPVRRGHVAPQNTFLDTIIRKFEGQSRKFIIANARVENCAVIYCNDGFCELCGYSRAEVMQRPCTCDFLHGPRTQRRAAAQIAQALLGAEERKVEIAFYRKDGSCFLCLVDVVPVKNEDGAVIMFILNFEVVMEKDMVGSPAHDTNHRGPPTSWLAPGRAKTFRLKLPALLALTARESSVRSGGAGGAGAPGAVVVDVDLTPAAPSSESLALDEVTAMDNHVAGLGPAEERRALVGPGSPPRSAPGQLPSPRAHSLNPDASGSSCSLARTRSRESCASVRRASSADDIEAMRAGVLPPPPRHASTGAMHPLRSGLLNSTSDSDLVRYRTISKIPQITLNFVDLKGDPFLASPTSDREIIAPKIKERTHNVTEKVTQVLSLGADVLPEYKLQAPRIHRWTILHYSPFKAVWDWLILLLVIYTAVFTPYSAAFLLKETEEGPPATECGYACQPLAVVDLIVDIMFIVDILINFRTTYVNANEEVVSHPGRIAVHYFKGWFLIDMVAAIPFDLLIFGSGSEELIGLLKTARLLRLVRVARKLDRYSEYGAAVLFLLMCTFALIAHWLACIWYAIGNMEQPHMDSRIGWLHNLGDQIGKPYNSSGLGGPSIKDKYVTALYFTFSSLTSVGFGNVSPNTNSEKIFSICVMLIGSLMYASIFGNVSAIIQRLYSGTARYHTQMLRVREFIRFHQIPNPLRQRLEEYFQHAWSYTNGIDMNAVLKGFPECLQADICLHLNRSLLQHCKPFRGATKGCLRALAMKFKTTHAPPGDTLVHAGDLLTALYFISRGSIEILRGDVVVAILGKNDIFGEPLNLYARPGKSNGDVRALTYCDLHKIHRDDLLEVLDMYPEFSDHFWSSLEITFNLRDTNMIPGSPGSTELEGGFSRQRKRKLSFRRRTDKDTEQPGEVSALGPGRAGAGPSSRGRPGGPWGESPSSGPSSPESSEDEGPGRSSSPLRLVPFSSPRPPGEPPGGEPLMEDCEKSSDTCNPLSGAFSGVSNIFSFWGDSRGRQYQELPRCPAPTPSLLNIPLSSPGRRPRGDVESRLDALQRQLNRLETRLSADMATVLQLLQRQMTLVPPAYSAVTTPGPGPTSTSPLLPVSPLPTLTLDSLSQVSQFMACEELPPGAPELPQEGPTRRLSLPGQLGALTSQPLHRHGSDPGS

Structure (SMILES)	hERG current change (%, negative = inhibition) at 1uM [%]
CCCn1c(O)c(N=NC(=O)CNC(=O)c2cccnc2)c2ccccc21	7.77
COCCN(CC1CCCN(C2Cc3ccccc3C2)C1)C(=O)CCC(C)=O (centres unmarked)	7.77
COc1ccc(-c2nnc(SCC(=O)N3CCOCC3)o2)cc1OC	1.41
CCC(C)NC(=O)C1CCN(S(=O)(=O)c2ccc3[nH]c(=O)ccc3c2)CC1 (centres unmarked)	7.77
Cc1ccc(S(=O)(=O)Nc2c(C)n(C)n(-c3ccccc3)c2=O)cc1C(=O)NCc1ccccn1	16.7
CC(C)=CC[N+]1(C)CCCCC1.[Br-]	18.7
CCC(C)OC(=O)c1[nH]c2c(c1C)C(=O)CC(c1ccc(N(C)C)cc1)C2 (centres unmarked)	5.6
CN(c1ccccc1)c1nc(N)c([N+](=O)[O-])c(N2CCCCC2)n1	7.57
Cc1n[nH]c(C)c1Sc1ccccc1[N+](=O)[O-]	2.44
O=C(NCc1ccc(F)cc1)C1CCCN(S(=O)(=O)c2ccc(-n3cnnn3)cc2)C1 (centres unmarked)	9.68
COc1ccc(/C=C/C(=O)NC2CCS(=O)(=O)C2)cc1 (centres unmarked)	10.3
COCCNC(=O)C(OC(=O)CC1Sc2ccccc2NC1=O)c1ccccc1 (centres unmarked)	6.18
CCCNC(=O)Nc1cccc(C(=O)OC)c1	0.0389
O=C(CN1C(=O)CCC1=O)Nc1ccc(Cc2ccc(NC(=O)CN3C(=O)CCC3=O)cc2)cc1	18.4
CCN(CC)CCCNC(=O)CSc1nc2c(c(C(F)(F)F)n1)CCc1ccccc1-2	-23.1
COCCn1c(SCC(=O)Nc2ccccc2F)nc2c(c1=O)SCC2	12.3
COc1ccc(C(=O)Nc2sc3c(c2C#N)CCN(C(C)=O)C3)cc1	17.6
O=C(CCS(=O)(=O)c1ccc(Br)cc1)NCCC1=CCCCC1	7.69
Cc1ccc(Cl)cc1N1CCN(CC(=O)NC2CCCc3ccccc32)CC1 (centres unmarked)	11.9
CCOC(=O)C1C(=O)CC(C)(O)C(C(=O)OCC)C1c1ccccc1 (centres unmarked)	3.77
O=c1cc(-c2ccccc2)nc(Sc2ccc([N+](=O)[O-])cc2[N+](=O)[O-])[nH]1	18.1
O=C(NCc1cccc(Cl)c1)c1ccc2c(c1)OCO2	6.15

Structure (SMILES)	hERG current change (%, negative = inhibition) at 1uM [%]
Cc1ccc(NC(=O)CN(C)S(=O)(=O)c2cccs2)cc1F	12
CN(Cc1nc2ccccc2c(=O)[nH]1)C(=O)c1cccc(S(=O)(=O)N2CCCCCC2)c1	4.23
CC1=C(C(=O)NCc2ccc3c(c2)OCO3)C2(CCC(C)CC2)OC1=O (centres unmarked)	-3.63
CCOC(=O)N(CC)OC(=O)Nc1ccc(Cl)cc1	-1.05
COc1ccc(N2CCN(C(=O)c3ccc(Cl)c(S(=O)(=O)N4CCCC4)c3)CC2)cc1	6.82
COc1ccc(C2SCC(=O)N2c2ccc(F)cc2)cc1 (centres unmarked)	14
COCCCNC(=O)c1ccc2c(c1)ncn2-c1ccccc1OC	5.26
CCOC(=O)C1=C(C)N(CCCCCC(=O)O)C(=O)NC1c1ccccc1Cl (centres unmarked)	7.73
COc1ccc(CN2C(=O)N(c3ccc(OC)cc3)C(=O)C2CC(=O)Nc2ccccc2)cc1 (centres unmarked)	12.2
N#C/C(=C(/O)COC(=O)c1ccc(C#N)cc1)c1nc2ccccc2s1	9.64
CC(C)CC(=O)NC(NC(=S)Nc1sc2c(c1C#N)CCCC2)C(Cl)(Cl)Cl (centres unmarked)	12.7
CCCCCC1CC(CC(=O)Nc2nncs2)C(=O)O1 (centres unmarked)	8.87
CCCCC(C(=O)O)C(C)CC(=O)Nc1cccc(C(=O)O)c1 (centres unmarked)	3.02
COc1ccccc1CNC(=O)C1CCCN(S(=O)(=O)c2cccc3nonc23)C1 (centres unmarked)	6.1
CCCCOC(=O)c1ccc(NC(=O)c2cc(Cl)c(Cl)cc2C(=O)O)cc1	2.68
CCOc1ccc(S(=O)(=O)N2CCN(Cc3ccc4c(c3)OCO4)CC2)cc1C	6.2
COc1ccccc1CNC(=O)c1c(-c2ccccc2Cl)noc1C	5.85
O=C(CN1CCN(c2ccccc2O)CC1)NCCCc1ccccc1	6.98
Cn1nc(C(F)(F)F)c2cc(C(=O)NC3CC3)sc21	5.65
CC(/C=N\NC(=O)c1cc(C)oc1C)=C\c1ccccc1	16.5
COc1ccc(OCc2cc(C(=O)N(Cc3nccn3C)C(C)C)no2)c2ccccc12	9.57
COC(=O)c1ccc(NC(=O)CCc2nnc3ccc(NCc4ccco4)nn23)cc1	18.3

Structure (SMILES)	hERG current change (%, negative = inhibition) at 1uM [%]
COc1ccc(/C=C2/Sc3ccc(C(=O)NCCN4CCCCCC4)cc3NC2=O)cc1	11.4
NS(=O)(=O)c1ccc(CCNC(=O)/C=C/c2cccc([N+](=O)[O-])c2)cc1	-1.11
CCOC(=O)C1=C(C)NC(=O)NC1c1ccc(OCC(N)=O)cc1 (centres unmarked)	6.27
O=C1c2ccccc2NC(c2ccc(O)cc2)N1Cc1ccco1 (centres unmarked)	-6.07
COCCN(Cc1cc2ccc(C)c(C)c2nc1Cl)C(=O)N1CCOCC1	3.39
CN(Cc1ccccc1)C(=O)CNC(=O)C12CC3CC(CC(C3)C1)C2	-0.479
CC(C)(C)c1ccc(O)c(CN2CCN(c3ccccc3)CC2)c1	17.8
CCOc1ccc(C2C(C(=O)Nc3ccccc3)=C(C)N=c3s/c(=C/c4cccc(OCC(=O)O)c4)c(=O)n32)cc1 (centres unmarked)	6.93
COc1ccc(C2=NN(C(=O)CSc3nc(=O)n4cccc(C)c4n3)C(c3ccc(C)cc3)C2)cc1 (centres unmarked)	9.55
COC(=O)Cc1ccc(OCC(=O)Nc2ccc(OC(F)(F)F)cc2)cc1	9.64
Cc1ccc2cccc(N=Cc3c(C)[nH]n(-c4ccccc4)c3=O)c2n1	11.4
O=C1C[C@@H](c2ccc(O)cc2)Oc2cc(O)cc(O)c21	8.66
CCn1cc(C(=O)NCCO)c(=O)c2cc(F)c(N3CCN(C)CC3)cc21.Cl	-2.33
CS(=O)(=O)c1ccc(Cl)c(NC(=O)COC(=O)c2ncc(Cl)c(Cl)c2Cl)c1	8.1
CN(Cc1ccnc2ccccc12)C(=O)C1CCC(=O)N(Cc2ccccc2F)C1 (centres unmarked)	5.4
CC1(CCc2ccccc2)NC(=O)N(CC(=O)N2CCCCCC2)C1=O (centres unmarked)	6.78
COc1cc(Cl)c(C)cc1NC(=O)CNC(=O)Cn1cnc2ccccc2c1=O	8.76
O=C(Nc1ccccc1)C1CC(=O)n2c(nc3ccccc32)N1 (centres unmarked)	10.7
COc1ccc(/C=N/NC(=S)Nc2ccccc2)cc1COc1ccccc1F	4.31
O=C(O)c1cc2cc(Cl)ccc2oc1=O	10.3
COC(=O)Nc1ncc(CN2CCc3ccccc3C2)s1	-14.7
Cc1c(Cl)c([N+](=O)[O-])nn1CC(=O)NC(C)C1CC2CCC1C2 (centres unmarked)	-1.62

Structure (SMILES)	hERG current change (%, negative = inhibition) at 1uM [%]
Cc1ccc(N2C(=O)[C@@H]3[C@H](C2=O)[C@H]2C=C(C(=O)c4ccccc4)C=CN2[C@@H]3C(=O)c2ccc(Cl)cc2)cc1	10.2
O=C(Nc1ccccc1)c1ccccc1NC(=O)C1CCCCC1	13.3
COc1ccccc1NC(=O)c1ccc(NC(=O)c2nc3nccc(C)n3n2)cc1	13.1
Nn1cnnc1SCC(=O)Nc1ccc2c(c1)OCO2	6.71
CC(C)(C)NC(=S)NC(=O)C12CC3CCC(CC(C3)C1)C2	10.6
CCOc1ccc(N(C(=O)c2cnsn2)C(C(=O)NC2CCCCC2)c2ccncc2)cc1 (centres unmarked)	-52.1
CC(=O)C1C(c2ccc(Cl)cc2)NC(=O)NC1(O)C(F)(F)F (centres unmarked)	15.4
CCOC(=O)c1cnc2c(-c3ccccc3)cnn2c1N	16.6
CCC(ONc1ccccc1C(F)(F)F)(C(=O)NN(C)C)c1ccccc1 (centres unmarked)	12.2
O=C(CSc1nnc(-c2ccccc2)o1)Nn1cnnc1	-4.31
CCOc1ccc(C(C)=O)cc1CN1c2ccc(S(N)(=O)=O)cc2CC1C (centres unmarked)	12.6
CCCC(=O)Nc1ccc(-c2cnc(-c3ccc(NC(=O)CCC)cc3)nc2)cc1	12.9
Cc1cc(C)n(CC(=O)Nc2ccc([N+](=O)[O-])cc2)n1	2.85
COc1ccc(OC)c(C2C(C(N)=O)=C(C)Nc3nc(CCCO)nn32)c1 (centres unmarked)	15.5
O=C(OCc1cc(-c2ccccc2)no1)c1ccc2ccccc2n1	14.7
CC(=O)NCCc1cc2cc(C)c(C)cc2[nH]c1=O	9.46
Cc1cc(=O)oc(C)c1C(=O)NCC(C)NC(=O)c1c(C)cc(=O)oc1C (centres unmarked)	2.37
C=CCOC(=O)C1=C(C)Nc2nnnn2C1c1cccs1 (centres unmarked)	-5.38
CC(=O)c1cccc(NC(=O)C2=CC(c3ccco3)=NS(=O)(=O)N2C)c1	15.9
O=[N+]([O-])/C=C/c1c(OCc2ccccc2)ccc2ccccc12	-3.83
